In ChEMBL document CHEMBL4888484, “Replenishing the malaria drug discovery pipeline: Screening and hit evaluation of the MMV Hit Generation Library 1 (HGL1) against asexual blood stage Plasmodium falciparum ,using a nano luciferase reporter read-out” (2022):
The campaign covered roughly 150,000 compounds. About 540 (0.36%) showed an effect of 50% or more. The list shows a part of the results.

system: Plasmodium falciparum; assay: Primary screen in NF54 nanoGlo assay, in single point, at 2uM, 72h; a lower Z score goes with more inhibition; assay type: functional, Erythrocyte; conditions: timepoint 72 hour

| SMILES | % Inhibition [%] | Z score |
| --- | --- | --- |
| CC(C)c1nnc([C@H](C)NC(=O)c2ccn(C(C)C)n2)o1 | -2 | 0.36 |
| C=CCN(CC(=O)N1CCN(c2ccc(-c3cccc(OC)c3)nn2)CC1)C(=O)c1ccc2c(c1)OCO2 | -6 | 0.78 |
| COc1ccccc1NC(=O)c1cnc2c(c1)ncn2C | -1 | 0.12 |
| O=C(N[C@@H]1CN(C(=O)c2ccc(F)cc2)CC[C@@H]1CO)c1ccccc1 | -10 | 1.3 |
| NC(=O)Cc1cccc2c1CCN([C@H]1CCc3cc(Cl)ccc31)C2 | -2 | 0.3 |
| Cc1nn(CC(=O)O)c(C)c1NC(=O)c1c(-c2ccccc2Cl)noc1C | -4 | 0.54 |
| CCCN1C(=O)COc2cc(-c3noc(C(=O)NCCCc4ccccc4)n3)ccc21 | -4 | 0.51 |
| O=C(c1cc(-c2cccc3ccccc23)[nH]n1)N1CCC(N2CCCCC2)CC1 | -1 | 0.18 |
| Cc1nn(C)cc1-c1c(-c2ccccc2)ncn1[C@H]1C[C@H]2CC[C@@H]1O2 | -8 | 1.47 |
| O=C1CN(C(=O)c2ccc(Cl)cc2)S(=O)(=O)c2ccccc21 | -31 | 3.65 |
| COC[C@H](Cc1ccccc1)N(C)CC(=O)NC(C1CC1)C1CC1 | 5 | -0.44 |
| C/C=C(\C)CN1CC[C@H](CNC(=O)Cc2ccncc2)C1 | -10 | 1.52 |
| CC(C)c1noc([C@@H]2CCCCN2C(=O)C2CCN(C(C)C)CC2)n1 | 10 | -1.29 |
| Cc1cccc(CCNC(=O)c2ccc(CN3CCC(C)CC3)o2)n1 | 7 | -1.31 |
| Cn1cc(C(=O)N(CC(F)F)c2cccc(Cl)c2)ccc1=O | -15 | 1.55 |
| O=C1NCCN(Cc2cccs2)[C@H]1CC(=O)N1CCN(c2ccccc2)CC1 | -14 | 1.26 |
| CCc1nc2ccccc2n1[C@@H](CC)C(=O)N1CCS(=O)(=O)CC1 | 2 | -0.3 |
| O=C(NCCN1CCCCC1)c1ccsc1 | -15 | 2.35 |
| CC(C)(C)OC(=O)N1CCC(c2c(C(=O)N3CCN(C(=O)c4ccco4)CC3)cnn2C(C)(C)C)CC1 | -6 | 0.94 |
| C[C@]1(COc2ccncc2)CCCN(Cc2ccccc2F)C1 | -3 | 0.37 |
| COc1c(F)ccc(F)c1C(=O)Nc1nn(-c2ccccc2Cl)cc1C | -17 | 1.96 |

| SMILES | % Inhibition [%] | Z score |
| --- | --- | --- |
| Cc1cccc(C(=O)N/C(=N/c2ccc3c(c2)OCCO3)NCCN2CCOCC2)c1 | -32 | 2.93 |
| O=C1CC[C@H](C(=O)NC2CC2c2ccccc2C(F)(F)F)N1 (stereo partly drawn) | 1 | -0.15 |
| COc1ccc(CNC(=O)Cn2ccc3ccc(N4CCCCC4)nc32)c(OC)c1 | -12 | 1.63 |
| Cc1ocnc1CNC(=O)NC1(Cc2ccccc2)CCCC1 | 32 | -3.63 |
| O=C(C1CCN(S(=O)(=O)c2ccc(-c3noc(-c4cc(Cl)ccc4Cl)n3)cc2)CC1)N1CCCC1 | -16 | 1.95 |
| NC(=NCc1c(F)cccc1F)N1CCN(c2ccc(F)cc2)CC1 | -10 | 1.44 |
| Cc1nonc1CNS(=O)(=O)CC1CCCC1 | -9 | 1.64 |
| CN(C(=O)NCCOc1cccc(Br)c1)[C@H]1CCOC1 | -7 | 1.21 |
| CC1CCN(c2nc3c(O)ncnc3n2C2OC(CO)C(O)C2O)CC1 (stereo not drawn) | 6 | -1.22 |
| CCCS(=O)(=O)N1CC(c2nc(CCOCC3CCOCC3)no2)C1 | -11 | 1.42 |
| CN(Cc1ccccc1OCc1c(F)cccc1Cl)C[C@H]1CCOC1 | -5 | 0.63 |
| CC(c1nnnn1C)N1CC(C)(C)C1C1CCCO1 (stereo not drawn) | -10 | 1.38 |
| Cc1ccc(S(=O)(=O)NCc2nc(-c3ccccc3)oc2C)c(C)c1 | -1 | 0.22 |
| CCN1CCC(NC(=O)C(C)(C)C#N)C1c1cc(F)c(F)c(F)c1 (stereo not drawn) | -7 | 0.63 |
| Fc1ccc(F)c(-c2nc(-c3ccnc(N4CCCC4)c3)no2)c1 | -11 | 1.63 |
| COCc1nsc(N2CCC[C@H](c3nncn3C)C2)n1 | 0 | 0.01 |
| CN(Cc1csc(-c2ccccc2)n1)C(=O)c1cc(C2CC2)no1 | -12 | 2.19 |
| CCn1nnc(C)c1C(=O)NC[C@H](C)c1ccccn1 | -16 | 2.37 |
| CC(=O)N[C@@H](C(N)=O)c1nnc(-c2ccc(C)cc2)o1 | -8 | 1.06 |
| Cc1cc(O[C@H]2CCN(C(=O)c3ccncc3)C2)nc(C)n1 | 0 | 0.01 |
| CCN(C(=O)CS(=O)(=O)c1ccc(Br)cc1)C1CC1 | -4 | 0.48 |

| SMILES | % Inhibition [%] | Z score |
| --- | --- | --- |
| CC(C)c1cc(C(=O)N2C[C@@H](c3ccccc3Cl)OCC2(C)C)no1 | 5 | -0.62 |
| COc1cc(Nc2ncccc2S(=O)(=O)Nc2ccc(C)c(C)c2)cc(OC)c1OC | -3 | 0.37 |
| O=C(O)[C@H](Cc1ccccc1)Nc1nc(C(F)(F)F)ns1 | -3 | 0.65 |
| CC1(C)CC(=O)c2ccc(OCC3CCN(C(=O)C(C)(C)C)CC3)cc2O1 | -6 | 0.76 |
| CC1CCCC(NC(=O)CN2C(=O)COc3ccc(Cl)cc32)C1C (stereo not drawn) | -5 | 0.91 |
| Cc1cccc(NC(=O)[C@H]2CC(=O)OC2(C)C)c1 | -3 | 0.44 |
| O=C(Nc1ccn(-c2ccc(Cl)cc2Cl)n1)c1cccnc1 | 8 | -1.21 |
| CCC1CCC(NCC(C)(C)CN(C)C)CC1 (stereo not drawn) | -4 | 0.82 |
| Cc1cccc(-n2c(=O)[nH]c3nc(N4CCCC4)ncc3c2=O)c1C | -4 | 0.62 |
| Cc1nc2c(s1)[C@@H](N(C)S(=O)(=O)C1(Cl)CC1)CCC2 | -11 | 1.28 |
| CCO[C@H]1[C@H](NC(=O)c2cccnc2)c2ccccc2C12CCN(C(=O)C#Cc1ccccc1)CC2 | -7 | 0.95 |
| N#Cc1c(NC(=O)c2ccc3ccccc3n2)sc2c1CCCC2 | -5 | 0.65 |
| CC(=O)N[C@H]1CCCN(Cc2cc(CN3CCN(C)CC3)c(C)cc2C)C1 | -5 | 0.66 |
| CC1CCC(C)N1C(=O)C1=CCCCO1 (stereo not drawn) | -11 | 1.12 |
| O[C@@]1(CNCc2noc(-c3ccco3)n2)CCCN2CCCC[C@@H]21 | -10 | 1.84 |
| COc1ccc(NC(=O)[C@@H]2CCCN2S(=O)(=O)c2ccc3c(c2)OCCO3)cc1OC | -3 | 0.39 |
| CO[C@H]1CS(=O)(=O)C[C@@H]1NS(=O)(=O)c1cccc(C)c1 | 3 | -0.47 |
| Cc1noc2ncnc(N3CCC4(CC3)CC(=O)N(Cc3ccccc3)C4)c12 | -6 | 0.71 |
| Cn1c(=O)c2c(c(-c3ccccc3)cn2C)n(CC(=O)Nc2ccc(Br)cc2F)c1=O | -8 | 1.11 |
| CC(C)c1cc(C(=O)N2CCCCCC2)no1 | -2 | 0.19 |
| COCCN(Cc1cc(NC(=O)CC(C)C)ccc1N(C)C)C(=O)C(C)C | -18 | 2.55 |

| SMILES | % Inhibition [%] | Z score |
| --- | --- | --- |
| Cc1cc(C)c(S(=O)(=O)N2c3ccccc3Oc3nc4ccccc4nc32)c(C)c1 | -14 | 1.6 |
| Cc1ccc(Br)c2[nH]c(C(=O)N3CC[C@H](O)C3)cc12 | 3 | -0.31 |
| O=C(CCc1ccccc1)N[C@H]1CC[C@H](Oc2ncc(F)cn2)CC1 | -10 | 1.77 |
| O=C(CCN1CCCO1)N1CC[C@@]2(CCCN(CCc3ccccc3)C2)C1 | -24 | 2.15 |
| CN(C)CC1CCN(C(=O)c2ccc(NC(=O)c3cc(F)cc(F)c3)cc2O)CC1 | -14 | 1.5 |
| Cc1ccc(S(=O)(=O)NCCn2nc(-c3ccccc3)n(C3CC3)c2=O)cc1 | -7 | 1.21 |
| COc1ccccc1-c1noc(CN2CCC[C@H]2c2cnn(C)c2)n1 | 7 | -1.08 |
| OCCN(Cc1ccc(CO)o1)c1ccccc1 | -1 | 0.14 |
| CCOc1cc(CN2CC[S+]([O-])CC2)ccc1OC | 6 | -1.1 |
| O=C(C(=O)N1CCN(c2ccc(F)cc2)CC1)N1CCCCC1 | -12 | 1.45 |
| Cc1nc([C@H](C)n2ccnc2-c2ccncc2)cs1 | 2 | -0.28 |
| CCCc1nnc(N(C)CCC(F)(F)F)s1 | -4 | 0.39 |
| CN(CCC1(O)CCCC1)C(=O)c1ccc(-c2ncccn2)cc1 | -23 | 2.73 |
| Cc1ncc2c(c1-c1noc(CCCC(=O)c3ccccc3)n1)CCNC2 | -16 | 1.74 |
| O=S(=O)(NCCOc1ncc(Cl)cc1Cl)C1COC1 | -9 | 1.29 |
| CCOCCCNC(=O)c1nc(CCS(=O)(=O)c2ccccc2)no1 | -10 | 1.43 |
| Cc1noc(-c2ccccc2NS(=O)(=O)c2ccccc2)n1 | -6 | 0.61 |
| CCc1c(C(=O)N2CCN3CCN(C)C(=O)[C@@H]3C2)csc1C | 0 | -0.03 |
| Cc1ccc(CC(=O)Nc2cc(Cl)cc(C(=O)O)c2)cn1 | -4 | 0.78 |
| O=C(NCC(c1ccccc1Cl)N1CCOCC1)C1CC2CCC1C2 (stereo not drawn) | -19 | 2.45 |
| Cc1cc(CO)cc(-c2cc3c(cc2CO)OCO3)n1 | 7 | -0.82 |
